Test results reported in the supplement of paper PMC11417369.
± gives the standard deviation of the averaged measurements. Some of the results follow.

system: PfAP2-EXP AP2 domain (GST-tagged); experiment: gcPBM binding intensity (ln(normalized median fluorescence intensity)); higher = stronger DNA binding
Method in brief: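 The highest Masliner-normalised natural-log median intensity across replicate spots of either probe orientation is reported as binding intensity. GST-tagged P. falciparum DNA-binding domains expressed in E. coli were applied for 1 h to an Agilent 4 × 180k array of primer-extended double-stranded 36-bp intergenic genomic probes plus negative controls, and bound protein was detected with Alexa488 anti-GST antibody and scanned at 488 nm.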

Sequence | gcPBM binding intensity (ln)
AGTATACATTCATTTTGTACTCAATGATTTGATAAC [XGTACX_site6787] | 8.55 ± 0.46
ATAATTATATTCCATACACACATATATTTAAAGGTT [CACACA_site2957] | 8.59 ± 0.33
TAAATAAATACATACACACACATACATATATATATA [CACACA_site3129] | 9.86 ± 0.26
TTATTGTTTATTAAATGTACAGATTCGTTAAAATTA [XGTACX_site3041] | 8.47 ± 0.33
CTAGCAAATACATACACACACACACCCATACATATA [CACACA_site3496] | 8.64 ± 0.49
TATTTTTTTGTGTTTGGTACACACGTTATAAAAAAT [XGTACX_site2655] | 8.44 ± 0.26
ACAACAATATGGAATTGTACATATATATATAAATAT [XGTACX_site3139] | 8.56 ± 0.26
GAACAAATAAAAAGGAGTACAATCAAATCTACGTAT [XGTACX_site343] | 8.78 ± 0.57
TACACAAAACATAAAAGTACATAATAATAAAGTTAA [XGTACX_site8872] | 8.86 ± 0.39
TTATAATAAATATGAAGTACTATAAATATGGTATAT [XGTACX_site5448] | 8.55 ± 0.26
AATAAATATAGGAATACACACAATATAAATGTATTG [CACACA_site3366] | 8.4 ± 0.4
ATCGCATAAAGACAAGAACACACATATATATTGTAG [CACACA_site9229] | 8.55 ± 0.38
CACTAAAATGGACACACACACACACCGATATATATA [CACACA_site6139] | 8.79 ± 0.48
TTTTTATTGAGAACAGTGCAAATAACAAAAAAAAAA | 9.07 ± 0.16
ATTTGGCATAAACACACACACACACCCACCCACATA [CACACA_site8096] | 9.17 ± 0.64
AACAAATAAGATAAATGACTTAACAAAAGAAAAAAG [CACACA_negctrl_site1409] | 8.76 ± 0.47
TTTTAATTATATTATGCACACACAATTGGAAAAAAA [CACACA_site8598] | 8.71 ± 0.12
GTAAAAAATATGAATACACACATAAAGGAAATAACA [CACACA_site1997] | 8.93 ± 0.3
AAAAAAAAAAAATTCACACACATATAAAAAATTAAG [CACACA_site728] | 8.39 ± 0.45
TTTTTTTTTTTTTTTTTTTTTTTTGGGTCCCATACA [CACACA_negctrl_site913] | 8.1 ± 0.47
TAATATATAAGTATTTGTACATATTCATTCATCTAT [XGTACX_site2935] | 8.37 ± 0.28
AAAAAAAAAAAAAAAAGTACAGACGTCAAAAAAAAA [XGTACX_site4817] | 8.89 ± 0.092

Sequence | gcPBM binding intensity (ln)
CACTATCAATATATATGTACATATATATATATATAT [XGTACX_site7854] | 10.1 ± 0.46
GTCACATTGTTATATTGTACAAATGTCGTTCTTTTT [XGTACX_site8098] | 8.86 ± 0.37
ATATAAAAATATATTAATATAAATAAATGGACATAT [XGTACX_negctrl_site488] | 8.73 ± 0.36
TAAATATATAAATACACACAAACATACATATATATA [CACACA_site4050] | 8.78 ± 0.29
CTTATACATTATTAACGTACATGTTATATGAATAAC [XGTACX_site5752] | 8.48 ± 0.21
AACATTATAGGACACACACACACATATATATATATA [CACACA_site4721] | 10.3 ± 0.13
TTTTTTTTTTTTTTTTTTTTTTTTAAATGCTTCTAA [TGCATGCA_negctrl_site253] | 7.84 ± 0.3
CATTATGTTGTAAATACACACATACCTATACATACA [CACACA_site6485] | 8.56 ± 0.4
TCTGAGAATGATAAAAAAAAAAAAAATGAAAAATTA [CACACA_negctrl_site1478] | 8.15 ± 0.54
ACGATATTTTTGGTGACACACATATATATATATATA [CACACA_site126] | 10.1 ± 0.46
TTTTTTTTTTTATCTGCACACCCTTTTGTGAATATT [CACACA_site789] | 8.65 ± 0.42
TATTTATTTATATTTACACACATTCATATAAATTCA [CACACA_site7628] | 8.53 ± 0.38
AAAACTTTTAGTTATACACACAACATAGAAAATATT [CACACA_site6287] | 8.65 ± 0.38
AATGAGCGTTAAAAATGTACAGAAAATTGGAATTAT [XGTACX_site5743] | 8.87 ± 0.37
CTCCTACAAATATGTAGTACATTCAAAATAAATACC [XGTACX_site8207] | 8.56 ± 0.28
AACAATCAAATAGACACACACACACCCAAACATAAA [CACACA_site2757] | 8.63 ± 0.57
ATGCAATAAATATACACACACAAATCTATATTTATA [CACACA_site7179] | 8.48 ± 0.43
AAAAAATGGATGATCACACACTTCATAAAAGTTGCA [CACACA_site7109] | 8.41 ± 0.44
TTTTTTTTGTAGAATTGTACTTATAAAATATATATA [XGTACX_site2116] | 8.19 ± 0.34
AAATAAAATAATTATAATACTAAAAATAATACATAA [GTGCAC_negctrl_site106] | 8.46 ± 0.36
AATTATTATATATATATATATATATATTTATATATT [GTGCAC_negctrl_site387] | 8.37 ± 0.17
AGTTCAAGGATTAAGACACACATATAAATAAATAAA [CACACA_site3662] | 8.64 ± 0.43

Sequence | gcPBM binding intensity (ln)
ATATATAAAAAAGCTAGTACACAAAAATATATAATG [XGTACX_site3001] | 8.97 ± 0.51
TTCTTTTCTCTTTTAATCATATTATATAAATGAATA [CACACA_negctrl_site820] | 8.58 ± 0.49
AAAAAAATTTATTAAAGTACTAGATAATCATATAAA [XGTACX_site1455] | 8.43 ± 0.37
CCTTTCACATATAATACATGCATTATTATATATGAA [TGCATGCA_site287] | 8.9 ± 0.47
ATTATAAATAAATATTGTACTTATATGATCTATTTG [XGTACX_site3820] | 8.18 ± 0.35
AGAATAATATAATAAAGTACAAACCTATCTAACTAC [XGTACX_site5477] | 8.81 ± 0.3
ATTGCATTTGTAGATAATACAATATGGATTGTTATA [CACACA_negctrl_site1749] | 8.1 ± 0.43
GGATATATTATATGTACACACACATATAAGGGATTA [CACACA_site7884] | 8.53 ± 0.33
AAAAATTTTATATTCACACACATATTTATATTTATA [CACACA_site6439] | 8.25 ± 0.27
GAGTAAAAATTAAAATGTACATATTATATATATTTA [XGTACX_site1319] | 8.15 ± 0.28
AAATCCTTATTTTTTTGTACGTAATATTTTATATGG [XGTACX_site1530] | 8.74 ± 0.45
ATGAATGTCCCAAGATGTACAATTATATATAACACA [XGTACX_site4702] | 8.54 ± 0.41
TTTTAAGATATAAATTAATACTTATATATATAGATA [CACACA_negctrl_site22] | 8.14 ± 0.67
TAATAAATAAGACACACACACATATATATATATTAT [CACACA_site1389] | 8.74 ± 0.33
ATATTAATATAATGTGCATGTTCAATGATCTTTTTA [TGCATGCA_site22] | 8.62 ± 0.35
TTATACAACAAGAAAATTATAAAATGTAACATATAT [GTGCAC_negctrl_site406] | 8.53 ± 0.42
ATAATTATTAATATAGTGCATTGGCATAATAATATA [GTGCAC_site9810] | 8.71 ± 0.11
TTAGATATAATATATACACACCAACGAACGAAGAAA [CACACA_site4763] | 9.12 ± 0.54
TATTTTTTAACACAACGTACATATAAAAAATATTTA [XGTACX_site6025] | 8.48 ± 0.37
TACAAATATATATGCACACACATATATGTATATGTG [CACACA_site3075] | 8.65 ± 0.26
AGTAAATAACACAAATATGAATGAAAAAAAAAATAT [GTGCAC_negctrl_site235] | 8.9 ± 0.36
CGTATGAGTAAATACACACCCACGTATATATATAAA [CACACA_site5728] | 8.38 ± 0.38

Sequence | gcPBM binding intensity (ln)
ATATATATATAGTACGCACACATAGTTGTACATTAA [CACACA_site2787] | 9.8 ± 0.34
TGTGCGGAAATAAGTGCACACATAGATATCTGTATT [CACACA_site5935] | 9.13 ± 0.19
CAACTTATTAAAAGTCGTACAAATGGGAAGAAGGAA [XGTACX_site6325] | 8.79 ± 0.36
TGACGACATTTCTTATGTACTAATTTTTCTTCCTTT [XGTACX_site4391] | 8.54 ± 0.47
TAAAAAAAGAAAAAAAGTACATGCTACTTTTATGAT [XGTACX_site7818] | 8.54 ± 0.42
CAAAATGATATGACAACACACAACCTATAGTAAGAC [CACACA_site1287] | 8.98 ± 0.6
TAATATATAATAAAGTGTACATATGCTTTATTATTA [XGTACX_site1920] | 8.6 ± 0.38
AATAAAAATAACCTAACATGCAAAAAAAAAAAAAAA [TGCATGCA_site718] | 8.26 ± 0.49
TGAATGCTTTTATGCACACGTACAAAAATATTATAT [CACACA_site2668] | 8.62 ± 0.12
GTCATTAAAAAAATATGTACTTAAATGTATGCATAT [XGTACX_site5951] | 8.43 ± 0.31
TGTGGTTTTTATAATTGTACATATATATAAATCTAT [XGTACX_site4766] | 8.73 ± 0.41
ATATAAAATAAATAAGTGCAGATAAATTTATGTGAC [GTGCAC_site9504] | 9.04 ± 0.32
TGTTGTTATAAAAAAAAAAAAAAAAAAAAAAAAAAA [GTGCAC_negctrl_site230] | 8.1 ± 0.28
TATATATTATATATATGTACTTATTTATTAATTTAT [XGTACX_site5253] | 8.29 ± 0.25
GGAATATAAATACATACACACATATATATATATATA [CACACA_site4998] | 10.1 ± 0.38
TATAATAAATCAAATGCACACACACTAATAAAAAAA [CACACA_site7937] | 8.85 ± 0.35
TACATGCTTATTTTAACACACAAATGGTAGTAATAA [CACACA_site766] | 8.37 ± 0.26
ATGAATATTTACAATCTTATTATGTTCAAAATTAAT [CACACA_negctrl_site592] | 8.25 ± 0.33
ATAAAATACAAAGGGACACACATATGAGTCTACAAA [CACACA_site3092] | 8.59 ± 0.57
TATATAATATAATGTAGTACATGTTTTATTTTTTAC [XGTACX_site7735] | 8.45 ± 0.42
ATTTATTTATTTTCATGTACATATGTAAATCAATAA [XGTACX_site3886] | 8.46 ± 0.38
TCACAAATGTATTATACACACAAGTTTTCTTTAATA [CACACA_site4107] | 8.39 ± 0.41
